The values that follow come from PubChem BioAssay (NCI).

“And” between values parts separate entries of the source, which are not always exact repeats. Identical values can stand only once.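 Tested at 5 concentrations; 48 h exposure; 96-well plates; endpoints linearly interpolated, else capped at highest concentration. Here, GI50 denotes the concentration required for 50% inhibition of growth. Definition used: TGI = concentration required for complete inhibition of growth.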

In the assay the test system is NCI-H322M lung. As to the kind of experiment: growth of human tumour cells (NCI), 48 h.
In the case of `CN1CCN(Cc2ccc(NC(=O)c3cncc(C#Cc4c(N)ncc5c(F)cccc45)c3)cc2C(F)(F)F)CC1`, the GI50 was 0.815 µM and the TGI stood at 1.61 µM. The matching figures for `C[C@]12CCCN1CC1=NNC(=O)c3cc(F)cc4[nH]c2c1c34`: 27.1 µM and above 100 µM. The matching figures for `CCCCCCCCCCCCNC(=O)N[C@H](C(=O)N[C@H]1/C=C/CCNC(=O)/C=C/[C@H](C)NC1=O)C(C)C`: 0.517 µM and 12.9 µM. The matching figures for `O=C(/C=C/c1ccco1)Nc1ncc(Cc2cccc(C(F)(F)F)c2)s1`: 0.322 µM and above 39.2 µM.

For `COc1ccc(CN2C(=O)/C(=C\C(=O)c3ccc(OCCN4CCCC4)cc3)c3ccccc32)cc1`, the GI50 is 14.7 µM and the TGI was found to be 28.2 µM. Take `CC(C)=CC1C(COC(=O)c2ccccc2Cl)C1(C)C` (stereo not drawn): the TGI was above 100 µM. `Cc1cc(I)cc(CNCCN2CCOCC2)c1O`: the GI50 is 83.3 µM and the TGI is above 100 µM. Turning to `CCc1cccc(C)c1N1C(=O)C(=O)C(c2nc3ccccc3o2)/C(=N/NC(=S)NN)C1=O` (stereo not drawn), the TGI was above 100 µM. In turn, `COc1ccc(C[n+]2cccc(O)c2)cc1` returned a TGI above 100 µM. Still for that read-out and setting: then `CC(=O)N(C)c1cc(NCc2ccccc2)ccc1OCc1ccccc1`, with 43.3 µM. For the compound `COc1cc(-c2cc(-c3cccs3)c(C#N)c(N3CCOCC3)n2)cc(OC)c1OC`, the GI50 was above 31.4 µM and the TGI is above 100 µM. The compound `CCC1(OC(=O)CNC)C(=O)OCc2c1cc1n(c2=O)Cc2cc3ccccc3nc2-1` (stereo not drawn) showed a TGI of 1.57 µM. Take `CCC(CC)c1cc(N[C@H]2CC[C@H](N)C2)n2nccc2n1`: the GI50 was 2.6 µM and the TGI is above 100 µM. Compound `CC1(C)CCCC2CC2CCC(C)(C)C1=O` (stereo not drawn) showed a TGI above 100 µM. For `CC(=O)OC1CC2C(C)(C)CCC[C@]2(C)C2=C1C(O)=C(C(C)C)C(=O)C2=O` (stereo partly drawn), the GI50 is 0.482 µM and the TGI was found to be 2.38 µM.

For the compound `O=C(NC(=O)c1ccccc1)OC(c1ccccc1)C1CO1` (stereo not drawn), the TGI is above 100 µM. `O=C(NNC(=S)Nc1ccc(Cl)cc1)C12CC3CC(CC(C3)C1)C2` displayed a TGI of 44.1 µM.

As for `NS(=O)(=O)c1ccc(N=Nc2c(O)[nH]c3ccc(C(=O)NCCc4cnc[nH]4)cc23)cc1`, the GI50 is above 25 µM and the TGI was above 25 µM. On to `CN(CC(=O)O)CC(=O)O`, for which the TGI was above 100 µM. On the same count and under the same terms, for `CC1(CO)C(O)CCC2(C)C1C(O)CC1CC3CC12CCC3(O)CO` (stereo not drawn) the value was above 225 µM; for `CC(=O)Nc1c2sscc-2n(C)c1=O`, 2.92 µM; for `CCCC(=O)N(C)N=Nc1ccc(C(=O)OCC)cc1`, above 100 µM. Consider `C=CCOC1CC(n2cnc3c(N)ncnc32)OC1CO` (stereo not drawn), for which the TGI is above 100 µM. On the same count and under the same terms, then `N#CCCN(C1=NN(C(=O)CC(=O)Nc2ccc(Cl)cc2)C(c2ccccc2)C1)c1ccc(Cl)cc1` (stereo not drawn), with above 100 µM; and `CO[C@H](C(=O)O[C@H]1C(=O)N2CC[C@@H]3CCC[C@H]1C32C)c1ccccc1` (stereo partly drawn), with above 100 µM. As to `Cc1cncc(-c2nc(NCCc3c[nH]c4ccccc34)c3ncn(C(C)C)c3n2)c1`, the GI50 is 4.82 µM and the TGI was 32.8 µM. `O=[N+]([O-])c1ccc(Cc2nc3cc4ccccc4cc3[nH]2)cc1C(F)(F)F` gave a TGI of 35.1 µM. The compound `O=C(Nc1ccc(Oc2ccc(NC(=O)Nc3ccccc3Cl)cc2)cc1)Nc1ccccc1Cl` showed a TGI above 100 µM. Still for that read-out and setting: for `CN1C(=S)CSc2ccccc21` the value was above 100 µM; for `O=S(=O)(Nc1nccs1)c1ccc([As](=O)(O)O)cc1`, above 100 µM.

Consider `O=C(COc1cccc(/C=C2\COc3ccccc3C2=O)c1)c1ccccc1`, for which the GI50 is 19.4 µM and the TGI is 59.5 µM. `Cc1c2oc3c(C)cnc(C(=O)NC4C(=O)NC(C(C)C)C(=O)N5CCCC5C(=O)N(C)CC(=O)N(C)C(C(C)C)C(=O)OC4C)c3nc-2c(C(=O)NC2C(=O)NC(C(C)C)C(=O)N3CCCC3C(=O)N(C)CC(=O)N(C)C(C(C)C)C(=O)OC2C)c(N)c1=O` (stereo not drawn): the TGI is above 70.9 µM.

Compound `NC(CP(=O)(O)O)C(=O)O` (stereo not drawn) came in with a TGI above 100 µM. Take `Clc1ccc(-c2nc3c(-c4ccccc4)nc(-c4ccccc4)cn3c2-c2ccc(Cl)cc2)cc1`: the GI50 was above 100 µM and the TGI was above 100 µM. Consider `CC(C)C(=O)Nc1ccc(-c2nc(-c3cccc(OCCN4CCOCC4)c3)c(-c3ccnc(Br)c3)[nH]2)cc1`, for which the GI50 was 4.05 µM and the TGI was above 100 µM. In turn, `CC(=O)NNc1nc(C)c(C(/C=C/c2ccc(Cl)cc2)=N\N=C(N)N)s1` gave a TGI above 100 µM.

As for `N#CC(C#N)=Cc1ccc(C(O)P(=O)(O)O)cc1` (stereo not drawn), the TGI was above 100 µM. As to `Cc1ccc(/C=C(/C#N)n2nnc3ncccc32)cc1`, the GI50 was 2.61 µM and the TGI is 11.9 µM. Consider `Cc1ccccc1C=NC12CC3CC(CC(C3)C1)C2`, for which the TGI was above 100 µM.

Take `CC1NC(C(=O)O)Cc2cc(O)c(O)cc21` (stereo not drawn): the TGI was above 100 µM. Still for that read-out and setting: for `COC(=O)C(=NNc1ccccc1[N+](=O)[O-])C(=O)OC` the value was above 100 µM; for `CC(C(=O)NCCNC(=O)CCCC(=O)N(C)O)C(=O)NCCNC(=O)CCCC(=O)N(C)O`, above 100 µM. Take `CCSc1nc(NC(C)c2ccccc2)c2cnn(CO)c2n1` (stereo not drawn): the GI50 is 61.1 µM and the TGI is above 100 µM. In the case of `CC(=O)c1cc2c(s1)C(=O)c1ccsc1C2=O`, the TGI amounted to 3.48 µM. For `COc1ccc(OC)c(N=Cc2cc(OC)c(OC)c(OC)c2)c1`, the TGI was above 100 µM. Still for that read-out and setting: for `Cc1ccc(C(=O)O)c(/C=C2\Cc3cc(C)cc(C)c3C2=O)c1` the value was above 100 µM; for `Cc1cn(CC2=NC3CCCCC3N2)c(=O)[nH]c1=O` (stereo not drawn), above 100 µM. On to `CN1C(=O)/C(=C2\S/C(=N\c3nnc(-c4ccccc4)o3)NC2=O)c2ccccc21`, for which the GI50 is 70.9 µM and the TGI was above 100 µM. The compound `O=C(CCc1ccc(O)c(O)c1)NCCc1ccccc1` gave a TGI above 100 µM.

Turning to `CCN(CC)C(=S)/N=C(\SC(=S)N(CC)CC)c1ccccc1`, the TGI was above 100 µM.

In the case of `CC(C)(C)CNCCCNc1ccc(Cl)cc1`, the TGI was above 100 µM. On the same count and under the same terms, then `O=C1C(Cl)=C(Cl)C(=O)N1c1ccccc1Cl`, with above 100 µM; and `COc1ccc(Cc2cc(OC)c(OC)c(OC)c2)cc1`, with above 100 µM. On the same count and under the same terms, then `COc1ccc(-c2[nH]c(-c3ccc(OC)cc3)c(-c3ccccn3)c2-c2ccccn2)cc1`, with above 100 µM; and `N#CC(NNC(=O)c1c(Cl)c(Cl)c(Cl)c(Cl)c1-c1nc2ccc(C(=O)c3ccccc3)cc2[nH]1)c1ccccc1` (stereo not drawn), with above 100 µM. In the case of `Clc1ccc(OCc2nnc3sc(SSc4nn5c(COc6ccc(Cl)cc6)nnc5s4)nn23)cc1`, the TGI was above 100 µM. The same measure, in the same setting: then `COc1ccc(N=C(CS(=O)c2ccc(C)cc2)C(F)(F)F)cc1` (stereo not drawn), with above 100 µM; and `Cc1n[nH]c(=O)n1Nc1ccccc1`, with above 100 µM; and `CCOc1cc(/C=N/c2nc3cc4sc(/N=C/c5ccc(O)c(OCC)c5)nc4cc3s2)ccc1O`, with above 100 µM. Regarding `COc1ccc(C2CC(c3ccc(NS(=O)(=O)c4cc([N+](=O)[O-])ccc4C)cc3)=NN2S(=O)(=O)c2cc([N+](=O)[O-])ccc2C)cc1` (stereo not drawn), the TGI was above 100 µM. On the same count and under the same terms, then `N#Cc1sc2c(c1OC(=O)c1ccc(Cl)cc1)c(=O)n(-c1ccccc1)c(=S)n2-c1ccccc1`, with above 100 µM; and `CCC(C)C(=O)O[C@H]1C(=O)O[C@@H]2C[C@H]3C(C)=CC(=O)[C@@H](O)[C@]3(C)[C@H]3[C@@H](O)[C@H](O)[C@@]4(C)OC[C@]32[C@@H]14` (stereo partly drawn), with 0.5 µM; and `COC(=O)C1CC(c2ccc(Cl)cc2)=NO1` (stereo not drawn), with above 100 µM.

Regarding `CC[O-].CC[O-].COc1ccc(C(=O)[CH-]C(C)=O)cc1OC.COc1ccc(C(=O)[CH-]C(C)=O)cc1OC.[Ti+4]`, the GI50 was 86.9 µM and the TGI is above 100 µM. For `COC(=O)CN=C1NC(=S)N(Cc2ccc(OC)cc2)C12CCCC2`, the TGI is above 100 µM.

For `O=C(O)c1ccc(NCc2nc3ccccc3[nH]2)cc1`, the GI50 was above 100 µM and the TGI was above 100 µM. In turn, `O=C(Nc1ccccc1)n1cc(-c2ccccn2)c(N2CCOCC2)n1` gave a TGI above 100 µM. Consider `Fc1ccc(Nc2ncc(-c3cc(F)c(Cl)cc3Cl)s2)cc1Cl`, for which the GI50 is 6.48 µM and the TGI was determined as 24 µM.

On to `Cc1occc1C(=S)Nc1ccc(Cl)c(C(=O)OCC(C)C)c1`, for which the TGI stood at 44.6 µM. For `CC(C)C1CC(CO)(CNc2nc(N)nc(Cl)c2/C=N\O)C1` (stereo not drawn), the TGI was 12.7 µM. On the same count and under the same terms, then `COC(=O)C(=O)C(C#N)c1cccc(Cl)c1` (stereo not drawn), with above 100 µM. Take `COc1ccc2nc3cc(Cl)ccc3c(NCCNCC(O)CO)c2c1` (stereo not drawn): the GI50 is 1.48 µM and the TGI worked out at 7.51 µM.

For the compound `CCCCOC(=O)/C=C\C(=O)NC(N)=O`, the GI50 was 46.4 µM and the TGI is above 100 µM. Consider `CC12CCCC(C#N)(C1)OC2=O` (stereo not drawn), for which the TGI was above 100 µM. Still for that read-out and setting: for `C[C@@H](Oc1ccc(Oc2cnc3ccc(Cl)cc3n2)cc1)C(=O)O` the value was above 100 µM. As to `COc1ccc(C(OC(=O)[C@H](O[Si](C)(C)C(C)(C)C)[C@@H](NC(=O)c2ccccc2)c2ccccc2)c2ccc(OC)cc2)cc1`, the TGI was above 100 µM. On the same count and under the same terms, for `COc1ccc(/C=C2\C[C@H]3[C@@H]4CC=C5C[C@@H](OC(C)=O)CC[C@]5(C)[C@H]4CC[C@]3(C)C2=O)cc1OC` the value was above 100 µM. On the same count and under the same terms, then `CC(O)CC(=O)CO[C@H]1[C@H](O)[C@@H](O)[C@@H](O)[C@@H]2NC(=O)c3c(cc4c(c3O)OCO4)[C@H]21` (stereo partly drawn), with 0.364 µM.

For the compound `CC12CC/C(=N/NC(N)=O)C3C1CCCC32`, the TGI is above 100 µM. In the case of `CN1C(c2ccccc2)CC(C)(O)CC1c1ccccc1` (stereo not drawn), the TGI was above 100 µM. Still for that read-out and setting: then `CCCCCCc1cc2cc(C(=O)NCc3ccccc3)c(=N)oc2cc1O`, with above 100 µM. On the same count and under the same terms, then `CC1=NN(c2cccc(Cl)c2)C2(C1=Cc1cccs1)C(Cl)C(=O)N2c1nc2ccccc2s1` (stereo not drawn), with 47.1 µM; and `O=c1oc2ccc3ccccc3c2cc1-c1nc(-c2ccc([N+](=O)[O-])cc2)n[nH]1`, with above 100 µM; and `C=C[C@]1(C)CC(=O)C(C(C)C=O)[C@]12C(=O)Oc1cccc(C)c1C2=O` (stereo partly drawn), with 34.7 µM. Same read-out and setting: then `Cc1ccc(NC(=O)CCc2nnc3s/c(=C\c4cccc([N+](=O)[O-])c4)c(=O)n23)cc1`, with above 100 µM. For `CC[C@@]1(O)C(=O)OCc2c1cc1n(c2=O)Cc2cc3c(CN(C)C)c(O)ccc3nc2-1`, the GI50 was 0.142 µM and 0.319 µM and 0.436 µM.
